From ChEMBL document CHEMBL4888484, “Replenishing the malaria drug discovery pipeline: Screening and hit evaluation of the MMV Hit Generation Library 1 (HGL1) against asexual blood stage Plasmodium falciparum ,using a nano luciferase reporter read-out” (2022)
The campaign covered roughly 150,000 compounds. About 540 (0.36%) showed an effect of 50% or more. The list shows a part of the results.

These compounds were tested on Plasmodium falciparum (assay: Primary screen in NF54 nanoGlo assay, in single point, at 2uM, 72h; a lower Z score goes with more inhibition). Conditions: timepoint 72 hour.
Type: functional, Erythrocyte

| Compound | % Inhibition [%] | Z score |
| --- | --- | --- |
| CC[C@H]1[C@H](NC(=O)c2ccccc2N2CCC(=O)NC2=O)[C@H]2CCO[C@H]21 | 0 | -0.02 |
| CC(=O)c1cnc(N(C)Cc2ccncc2C)nc1C | 0 | -0.02 |
| CC[C@@H](CC#N)NC(=O)c1cccn1C(C)C | -7 | 0.71 |
| CC(C)C[C@H]1CC(=O)N(CC(=O)N2CCN(C(=O)c3ccccc3)CC2)C1 | -6 | 1.09 |
| Cc1ccc(F)cc1CN1CC(C#N)C2(C1)C(=O)Nc1ccccc12 (centres undefined) | -7 | 0.91 |
| O=C(NCc1nccs1)NCC1(c2ccccc2)CC1 | -11 | 0.99 |
| CCS(=O)(=O)CCn1cc(C)nn1 | 3 | -0.66 |
| Cc1ccc(CN(Cc2ccc(F)cc2)C(=O)CN(CCN2CCOCC2)S(=O)(=O)c2ccc(Br)cc2)o1 | -8 | 1.34 |
| CC(=O)c1ccc(CNC(=O)c2cc(C)no2)nc1C | -8 | 0.66 |
| CN(CC(=O)NC[C@H]1CCCO1)Cc1ccc(F)cc1Cl | -12 | 1.49 |
| CC(C)(C)n1nc(-c2ccco2)nc1[C@@H]1CCC(=O)N1 | -9 | 1.16 |
| O=C(c1cccc(-c2ncc[nH]2)c1)N(CCO)Cc1nccs1 | -17 | 1.71 |
| C[C@H](NCc1cccc(C#N)c1)C(=O)N1CCCCC1 | -11 | 1.04 |
| Nc1nc(COC(=O)CCc2ccc3c(c2)OCO3)nc(Nc2ccccc2)n1 | -3 | 0.37 |
| O=C1CN(Cc2ccc(Cl)s2)CCN1 | -10 | 1.15 |
| Cc1cc(C(=O)N2CCC[C@@]3(CCCO3)CC2)no1 | -3 | 0.4 |
| OCCN(Cc1ccc(F)cc1)C1CCN(c2ccc3c(c2)OCO3)CC1 | -5 | 0.73 |
| C1=CC(N2CCOCC2c2nc(-c3ccccc3)no2)CCC1 (centres undefined) | 3 | -0.36 |
| CC(C)CN1CCn2cc(C(=O)NCc3ccc(C(F)(F)F)cc3)nc2C1 | 6 | -0.84 |
| COc1ccc([C@H](C)NC(=O)c2cc3c(s2)CCN(C(=O)c2ccccc2)C3)cc1 | -8 | 1.15 |
| Cc1n[nH]nc1C(=O)NCCCn1cc(Cl)cn1 | -9 | 0.92 |

| Compound | % Inhibition [%] | Z score |
| --- | --- | --- |
| CC(C)(C)NC(=O)N(Cc1ccccc1OS(=O)(=O)c1ccc(F)cc1)CC1CC1 | -6 | 0.72 |
| C#CCN(CCOC(=O)N(C)C)C1CCCC1 | -7 | 1 |
| C=CC[C@]1(C(=O)O)CCCN(Cc2cc(C(N)=O)oc2C(C)(C)C)C1 | 1 | -0.21 |
| O=C(c1cc2n(n1)CCN(Cc1cccc(Cl)c1)C2=O)N1CCC(Cc2ccccc2)CC1 | -10 | 1.1 |
| O=C1NCCN(Cc2ccccc2)[C@H]1CC(=O)N1CCCCCCC1 | -10 | 1.82 |
| Cn1ccc(C(=O)N2CC(F)(F)C[C@H]2Cn2cc(C(=O)NCc3ccccc3)nn2)n1 | 34 | -3.88 |
| CN(CC1(CO)CCC1)c1nnc(C(C)(C)C)o1 | 3 | -0.54 |
| COc1cccc(-c2cc(C(=O)N[C@@H](C)c3ccccc3)nc3cc(-c4ccccc4)nn23)c1 | -14 | 1.77 |
| O=C(NCc1ccco1)c1cc(-c2cccc(F)c2)ns1 | -6 | 0.83 |
| CC1CCN(C(=O)c2ccc(N3CC(C(N)=O)CCC3C)nc2)CC1 (centres undefined) | -8 | 0.74 |
| CCc1nc(CCN2CCN(C)CC2)n(-c2ccc(S(N)(=O)=O)cc2)n1 | 3 | -0.58 |
| CC(C)(C(=O)N1CC[C@H](CN2CCCC2)C1)c1ccc2c(c1)OCO2 | -12 | 1.91 |
| CCN(CC)S(=O)(=O)c1ccc(-c2csc(N3N=C(c4ccc(OC)cc4)C[C@H]3c3ccc(OC)cc3)n2)cc1 | 5 | -0.77 |
| Cc1ccccc1N1CCN(c2ncccc2CNc2cccc(C#N)n2)CC1 | -4 | 0.81 |
| Cc1cc(C)cc(CN2CCN(C(=O)[C@@H](C)CN3CCOCC3)CC2=O)c1 | -14 | 1.65 |
| O[C@H]1[C@H](NCc2cccs2)[C@H]2CO[C@H](O2)[C@@H]1n1cncn1 | 5 | -0.74 |
| CC(C)N(Cc1c(-c2ccccc2)noc1N1CCOCC1)C(=O)c1ccccc1F | -3 | 0.39 |
| O=C(c1ccc(F)c(F)c1)N1CCC(O)(Cn2cc(C(=O)N3CCOCC3)nn2)CC1 | 30 | -3.38 |
| CCCN1CCC(CC(=O)N[C@@H](C)c2cnn(-c3ccccc3)c2)CC1 | -13 | 2.38 |
| Nc1nccnc1C(=O)NCc1ccn2ccnc2c1 | 0 | 0.03 |
| C[C@H]1C(=O)N(C)CCN1CCCCC1CCOCC1 | -7 | 0.79 |

| Compound | % Inhibition [%] | Z score |
| --- | --- | --- |
| Cc1ccc(S(=O)(=O)Nc2nc3c(C)cc(NC(=O)Nc4cccc(F)c4)cc3s2)cc1 | 31 | -3.54 |
| CC(C)(C)C(=O)N1C[C@@H]2CN(C3CCCC3)CC[C@]2(CO)C1 | -14 | 1.95 |
| C[C@H]1c2ccccc2CN1c1nnc(-c2n[nH]c3c2CCCC3)n1C | -5 | 0.97 |
| CCc1nn(C)c(Cl)c1CN1CC[C@H](NC(=O)c2cnccn2)[C@@H](O)C1 | 6 | -1.07 |
| CS(=O)(=O)N1CCN(Cc2noc(C3CC3)n2)CC1 | 16 | -2.04 |
| Cc1cc2c(N3CC[C@H](NC(=O)c4ccccc4)[C@@H](O)C3)ncnc2s1 | -11 | 1.05 |
| Cc1cccc(-n2cc([C@H]3c4nc[nH]c4CCN3Cc3[nH]cnc3C)cn2)c1 | -5 | 0.57 |
| Cc1cc(=O)n(CC(=O)Nc2ccc(Cl)c(C(F)(F)F)c2)c(-c2cccc(Cl)c2)n1 | -3 | 0.34 |
| COc1cccc(C2(c3noc([C@]45CNC[C@H]4CCOC5)n3)CC2)c1 | -5 | 0.62 |
| CC(=O)N[C@H]1CN(C(=O)c2ccc3c(c2)CCC3)C[C@@H]1c1ccc(C)cc1 | -8 | 1.43 |
| COC(C(=O)N1C[C@@H]2CCCN(C(=O)C(OC)C3CC3)[C@@H]2C1)C1CC1 (some centres undefined) | 0 | 0.01 |
| COc1c(C)cc(C)cc1S(=O)(=O)Nc1nc(C(F)(F)F)c[nH]1 | 0 | -0.03 |
| COc1ccc2c(c1)C(NC(=O)C1CCOC1)CCN2C(=O)C1CCOC1 (centres undefined) | -11 | 2.4 |
| CC1(C)CC(=O)NCCN1Cc1noc(-c2ccccc2)n1 | 9 | -1.83 |
| Cc1cc(C)cc(NC(=O)c2ccc(Nc3ncc(-c4cccc(F)c4)cn3)cc2)c1 | 31 | -3.48 |
| COC[C@H]1CCCN1C(=O)[C@@H](C)C1CC[C@@]2(C)CC[C@H](NC(=O)c3ccc(OC)cc3)[C@@H](C)[C@@H]2[C@H]1O (some centres undefined) | 5 | -0.58 |
| CCOC(=O)N1CCN(Cc2cn3cccc(C)c3n2)CC1 | -5 | 0.6 |
| CCOC(=O)C1CCN(c2ncc(C(=O)Nc3ccccc3)c(N)n2)CC1 | -12 | 1.44 |
| Nc1nc2cc[nH]c2cc1Br | 4 | -0.7 |
| Cc1ncc(CNCc2cncn2CC(C)C)cn1 | 4 | -0.36 |
| O=S(=O)(NC1CCCC(C(F)(F)F)C1)N1CCOCC1 (centres undefined) | -27 | 3.18 |

| Compound | % Inhibition [%] | Z score |
| --- | --- | --- |
| Cc1noc(C)c1S(=O)(=O)N(C1CC1)[C@@H](C)c1cccc(C(F)(F)F)c1 | -13 | 2.37 |
| CCc1cccc(C)c1NC(=O)COc1ccc(N2C[C@@H](C(=O)NCc3ccc(C)cc3)CC2=O)cc1 | -14 | 1.73 |
| C[C@](O)(C(=O)NCC(=O)NC1CCCC1)c1ccc(F)cc1 | 35 | -0.73 |
| C[C@@H](CS(=O)(=O)c1cccc2cccnc12)N1CCCCC1 | -1 | 0.17 |
| Cc1cnccc1NCCNc1ccc(C(N)=O)cn1 | -13 | 2.42 |
| CCN(CC1COc2ccccc2O1)C(=O)CN1C(=O)NC2(CCCCC2C)C1=O (centres undefined) | -1 | 0.27 |
| c1cc2c(cc1-c1nnc3ccc(NC4CCC4)nn13)OCO2 | -11 | 1.73 |
| Cc1cc(C)c(NC(=O)c2c(Oc3ccc(F)cc3)nc(C)c(Cl)c2C)c(C)c1 | -3 | 0.54 |
| CCCS(=O)(=O)NC[C@H]1CCC(=O)N(Cc2ccccc2)CC1 | 10 | -1.01 |
| CC(=O)C1C(c2cccnc2)c2c(C)[nH]c(=O)c(C#N)c2CC1(C)O (centres undefined) | -8 | 1.13 |
| Cc1ccccc1-c1csc(=O)n1Cc1cc(C2CC2)no1 | 9 | -1.81 |
| CCC1(CC)CN(C(=O)c2ccc3ccccc3n2)CC[S@@+]1[O-] | -6 | 0.67 |
| CN(CCc1cnn(C)c1)Cc1cc(O)c2cccc(F)c2n1 | 0 | 0 |
| O=C(Nc1ccc2c(c1)CCC2)[C@@H]1CCCN1C(=O)c1ccco1 | -3 | 0.43 |
| O=C(CCc1cccnc1)Nc1nc2ccc(F)cc2s1 | 4 | -0.65 |
| Cc1nc(C(=O)N2CCc3nc[nH]c3C2)c(-c2ccccc2)s1 | -6 | 0.86 |
| CC(C)c1ccc(C(=O)NCc2ccn(C3CCCC3)n2)c(=O)[nH]1 | 2 | -0.44 |
| Cc1ncc(C(=O)N[C@H]2CCS(=O)(=O)[C@H]2C)c(N)n1 | -12 | 1.41 |
| NC(=O)c1csc(CN2CCc3c(F)ccc(F)c3C2)c1 | 18 | -2.38 |
